Experimental data: PubChem BioAssay AID1508624 (National Center for Advancing Translational Sciences (NCATS), 2021)
Out of some 48,000 compounds screened, about 120 (0.25%) were called active. Inconclusive results (about 4%) are left out. Calls come from the whole dose curve; as a rule, active = well fitted activation curve with a large enough effect; inconclusive = small, poorly fitted or top-dose-only effect, or another doubt; inactive = no such curve, though single readings can be large or run the other way. The list shows a part of the results.

experiment: Primary qHTS for Identification of Small Molecule Activators of Huntingtin-Antisense Promoter Activity; conditions: HEK293 HTT-AS promoter firefly luciferase reporter, 24 h; series mostly up to 57.5 µM; activity change, positive = activation: at the top concentration; note: nearly all actives have a fitted effect of over 55% in size
Outline: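 Firefly luciferase signal from promoter-reporter HEK293 cells was scaled between vehicle (0%) and zero RLU (-100%). Compounds were tested at final concentrations of up to 57.5 uM over 24 h at 37 degrees C. PTC124 at 50 uM final served as control inhibitor.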

Activity change, positive = activation, inactive:
COc1cc(OC)c(-c2cc(C(=O)NCc3ccc(F)cc3)c3c(-c4ccccc4)[nH]nc3n2)cc1OC -29.9%
COc1ccc(CCNC(=O)Cn2c(=O)n(-c3ccccc3)c(=O)c3c(C)c(C)sc32)cc1OC -9.65%
CC(=O)N1c2ccc(S(=O)(=O)N3CCCCCC3)cc2CC1C(=O)NCc1ccccc1C (stereo not drawn) -4.72%
COCCCNC(=O)CCCn1c(SCC(=O)c2ccc(F)cc2)nc2c(sc3ccccc32)c1=O -18.9%
C#C[C@]1(O)CC[C@H]2[C@@H]3CCc4cc(O)ccc4[C@H]3CC[C@@]21C -21%
CCCCN(CCCC)CCC(O)c1cc2c(Cl)cc(Cl)cc2c2cc(C(F)(F)F)ccc12 (stereo not drawn)
COc1ccc(CNC(=O)CSc2ncc3c(n2)-c2ccc(Cl)cc2N(Cc2ccc(F)cc2)S3(=O)=O)cc1OC -0.721%
CCOC(=O)c1ccc(NC(=O)CSc2nnc3c4ccccc4n(CC)c3n2)cc1 -1.54%
COc1ccc(Cn2c(C(=O)O)c(CNCc3ccco3)c3ccc(OC)cc32)cc1 -28.7%
O=C(CSc1c2c(nc3ccccc13)CCC2)Nc1ccc(F)cc1 -17.1%
COc1ccc(-n2cnc3cc(C(=O)NC4CCCC4)ccc32)cc1 -12.3%
CC(C)(C)c1ccc(C(=O)NCC(c2ccco2)S(=O)(=O)c2ccc(F)cc2)cc1 (stereo not drawn) -41.3%
CN(C)c1ccc(CNC(=O)c2ccc(Cn3c(=O)c4cccn4c4cccnc43)cc2)cc1 -17%
CCc1ccc2ncc(C(=O)c3ccc(C)c(C)c3)c(N3CCC(C(N)=O)CC3)c2c1 -8.84%
COc1cc2nc(-c3ccc(N4CCN(C)CC4)cc3)nc(NCCN3CCOCC3)c2cc1OC -41.2%
Cc1ccc(Cn2c(CNC(=O)CCc3ccccc3)nc3cccnc32)cc1 -17.5%
Cc1cccc(N2CCN(Cc3nnc(-c4ccccc4C)o3)CC2C)c1 (stereo not drawn) 1.31%
COc1ccc(C2=Nc3ccc(F)cc3NC(c3cccc(C(F)(F)F)c3)=N2)cc1 -5.83%
CCCOc1ccc(C(=O)N(Cc2ccccc2Cl)C2CCS(=O)(=O)C2)cc1 (stereo not drawn) -1.65%
COC(=O)c1ccccc1NC(=O)c1cnc(Nc2ccc(OC)cc2)c2ccccc12 -15.7%
CC1(C)CC(=O)c2cc(C#N)c(=O)n(-c3ccc(Cl)cc3)c2C1 13.8%
COc1ccc(NC(=O)Cn2cc(C(=O)c3ccccc3)c(=O)c3cc(OC)ccc32)c(OC)c1 -6.54%
O=C(O)CCC(=O)Nc1sc2c(c1C(=O)Nc1ccccc1)CCCCC2 -7.09%
CCc1ccc(NC(=O)c2ccc(F)c(S(=O)(=O)N3CCN(c4ccc(OC)cc4)CC3)c2)cc1 -39.4%
Cc1ccsc1CN(C(=O)c1ccc(OCC(C)C)cc1)C1CCS(=O)(=O)C1 (stereo not drawn) -24.9%
Cc1ccc2oc(-c3cccc(NC(=O)Cc4ccc(Cl)cc4)c3)nc2c1 -4.19%
Cc1ccc(Sc2c(C)nn(C(=O)c3ccc(Cl)cc3)c2C)cc1 -8.63%
Cc1c(C(=O)OC(C)C)sc(NC(=O)C2c3ccccc3Oc3ccccc32)c1C(=O)OC(C)C -20.3%
CCOC(=O)c1c(S(=O)(=O)N2CCCC(C(=O)Nc3ccc(C)cn3)C2)c(C)n(C)c1C (stereo not drawn) 7.46%
Cc1ccc(-n2c3nc(=O)[nH]c(=O)c-3cc3c(C)nn(-c4ccccc4)c32)cc1C -11.1%
COc1ccccc1CNC(=O)CCCN1C(=O)CSc2c1c(C)nn2-c1ccccc1 11.7%
COc1ccc(-n2nc(C(=O)N3CCN(c4ccccc4OC)CC3)c3c4ccccc4n(C)c3c2=O)cc1Cl -0.786%
CC(=O)N1CCOc2cc(S(=O)(=O)NCc3ccc(F)cc3)c(C)cc21 1.69%
O=C(Cn1c(=O)n(Cc2ccccc2)c(=O)c2sc3ccccc3c21)Nc1ccccc1F -11.1%
O=C(Nc1ccc2c(c1)CCCN2C(=O)c1cccs1)c1ccccc1 0%
O=C(NC1CCCc2ccccc21)c1ccc2c(c1)sc1nc(-c3ccccc3)cn12 (stereo not drawn) 11.7%
CC(C)C1N=C2c3ccccc3N=C(SCC(=O)NCc3ccc(Cl)cc3)N2C1=O (stereo not drawn) -4.83%
CCOc1ccccc1NC(=O)C1CCN(S(=O)(=O)c2cccs2)CC1 -19.1%
CC(CNC(=O)CCc1cn(Cc2ccccc2Cl)c2ccccc12)c1ccccc1 (stereo not drawn) -19.6%
COc1cccc(Oc2nc(C)nc3c2oc2ccccc23)c1 -16.5%
Cc1c(C(=O)NCc2cccc(Cl)c2)sc2nc[nH]c(=O)c12 -18.9%
CCOc1ccc(NC(=O)Cn2ccn3nc(-c4ccc(OC)c(OC)c4)cc3c2=O)cc1 28.2%
Cc1cc(C)cc(NC(=O)Nc2ccc3nc(N4CCN(C)CC4)cc(C)c3c2)c1 -18.2%
COc1cc(F)c(F)c(Nc2ccc(I)cc2F)c1NS(=O)(=O)C1(C[C@H](O)CO)CC1 -11.9%
CCCS(=O)(=O)c1nc(S(=O)(=O)c2ccc(C)cc2)c(NCc2ccccc2Cl)s1 -17.4%
Cc1nc(N2CCCC2)c2c(C(=O)Nc3cccc(Cl)c3)c(C)oc2n1 -16.6%
COc1ccc(C2=C(C)C(N3CCC(C(=O)Nc4ccc(F)cc4C)CC3)=NS2(=O)=O)cc1 -11.7%
O=C(Nc1ccc(Cl)c(C(F)(F)F)c1)C(Cc1ccccc1)NS(=O)(=O)c1ccc(Br)s1 (stereo not drawn) -7.1%
CCOc1ccc(NC(=O)C(=O)NCc2ccco2)cc1 15.6%
O=C(NCc1ccccc1)C(=O)NCC(c1cccs1)S(=O)(=O)c1ccccc1 (stereo not drawn) -27.3%
CC1(C)CC(=O)c2cc(C(=O)Nc3ccccc3Cl)c(=O)n(-c3ccc(Cl)cc3)c2C1 0%
COc1ccc2cc3cc(C(=O)NCc4ccccc4OC)oc3nc2c1 -17.8%
Cc1cccc(NC(=O)CSc2nc3ccccc3nc2N2CCOCC2)c1C 6.1%
CC(=O)c1ccc(N2CCN(C(=O)CCCCn3c(=O)[nH]c4ccsc4c3=O)CC2)cc1 -21.4%
CCOc1ccc(CNS(=O)(=O)c2cc3c(cc2C)NC(=O)CO3)cc1 -29.7%
CCSc1nnc(NC(=O)c2cc(=O)c3cc(C)c(C)cc3o2)s1 5.61%
O=C(Nc1cccc(C(F)(F)F)c1)c1cc(-c2ccc3c(c2)OCCO3)on1 -8.36%
CCc1cnc2c(c1SCC(=O)c1ccc(Cl)cc1)c(=O)n(C)c(=O)n2C -11.6%
COc1ccc(Cn2c(=O)c3cccnc3n(CC(=O)Nc3c(C)cc(C)cc3C)c2=O)cc1 -2.63%
CCOC(=O)c1c(-c2ccc(OC)cc2)oc2ccc(OCc3ccc(Br)cc3)cc12 13.9% [at 11.5 µM, percent change from vehicle, -100% = no light]
O=C(NCCc1ccc(F)cc1)C(=O)NCC(c1ccco1)S(=O)(=O)c1cccs1 (stereo not drawn) -7.48%
CCc1ccccc1NC(=O)c1ccc2nc(C(C)C)oc2c1 -23.7%
Cc1ccc(N(CC(=O)Nc2ccc(Br)cc2)S(=O)(=O)c2cccs2)cc1 -7.17%
COc1ccc(S(=O)(=O)n2nc(C)c(S(=O)(=O)N3CCC(C)CC3)c2C)cc1OC -9.77%
O=C(Nc1nnc2n1CCS2)c1ccccc1C(F)(F)F -7.4%
CC(C)CCNC(=O)CCC(=O)NNc1nc2ccccc2c2nc(-c3ccccc3)nn12 -12.9%
COc1cc(OC)cc(C(=O)N2CC(=O)Nc3ccc(Cl)cc3C2c2ccccc2)c1 (stereo not drawn) 15.1%
COc1ccc(CCNC(=O)c2ccc(Cn3c(=O)c4ccccc4n(Cc4cccc(Cl)c4)c3=O)cc2)cc1OC -31.8%
CCOc1ccccc1NC(=O)C(CC)Sc1nc2ccncc2[nH]1 (stereo not drawn) -22.5%
COc1ccc(NCc2cc3cc4c(cc3n(CC(=O)Nc3cc(C)ccc3C)c2=O)OCCO4)cc1 25.8%
CC(C)c1ccc(NS(=O)(=O)c2ccc3nc(-c4ccccc4)[nH]c3c2)cc1 -18.1%
Cc1nn2c(=O)cc(COC(=O)c3ccccc3NC(=O)C(C)Oc3ccccc3)nc2s1 (stereo not drawn) -3.2%
CCOc1ccc(CN2CCc3nc(Nc4ccc5c(c4)OCCO5)ncc3C2)cc1 11.7%
Cc1ccc(-n2c(=O)c3ccc(C(=O)NCc4ccco4)cc3n(Cc3ccccc3C#N)c2=O)cc1 -12.5%
Cn1c(=O)c2cc(C(=O)NCCCN3CCN(c4ccccc4F)CC3)sc2c2ccccc21 -8.58%
Cc1ccc(NC(=O)Cn2c(=O)n(Cc3ccco3)c(=O)c3ccccc32)c(C)c1 -16%
CCN(CC)c1cc2c(cc1F)c(=O)c(S(=O)(=O)c1cccc(C)c1)cn2C -3.29%
CCOc1ccc(C2CC(=O)N(c3cccc(F)c3)C3=C2C(=O)OC3)cc1 (stereo not drawn) 15.9%
Cc1ccc(-n2nc3c(=O)n(CCCC(=O)NCCc4ccccc4Cl)nc(C)c3c2C)cc1 -14.9%
Cc1cccc(NC(=O)CSc2nc(-c3ccco3)cc(C(F)(F)F)n2)c1C -17.3%
Cc1cccc(N2CCN(S(=O)(=O)c3csc(C(N)=O)c3)CC2)c1C -57.1%
Cc1ccc(N(Cc2cccs2)C(=O)c2ccccc2Cl)cc1 -24.6%
CCOC(=O)c1ccc(NC(=O)c2cc3sccc3n2Cc2ccc(Cl)cc2)cc1 -33.4%
O=C(c1ccccc1Cl)N1CCCCC1CCN1CCCCC1 (stereo not drawn) -10%
COc1ccc(NC(=O)C(C)N(c2ccccc2)S(C)(=O)=O)cc1 (stereo not drawn) 19% [at 11.5 µM, percent change from vehicle, -100% = no light]
COc1ccc(C)cc1NC(=O)Cn1c(=O)n(Cc2nc(C)no2)c(=O)c2ccccc21 -11.9%
CN(C)c1ccc(CN(CC2CCCO2)C(=O)COc2ccccc2Cl)cc1 (stereo not drawn) -33.3%
COc1ccccc1CNC(=O)Cc1c(C)c2c(cc(C)c3c(C)coc32)oc1=O -6.03%
COc1ccc(N(CC(=O)NCc2ccc(F)cc2)S(=O)(=O)c2c(C)noc2C)cc1 -11.3%
N#Cc1ccc(-c2cccs2)nc1SCc1c(F)cccc1Cl -44.2%
Cc1ccccc1C(=O)N(Cc1ccc(N(C)C)cc1)Cc1ccco1 -23.1%
COc1ccc(OC)c(-c2nc3c(C#N)c[nH]n3c2NC2CCCCC2)c1 -15.4%
CCCN(c1ccc(C(C)C)cc1)S(=O)(=O)c1ccc2c(c1)CCN2C(=O)CC -21.9%
